Assay results reported in PubChem BioAssay AID875 (National Center for Advancing Translational Sciences (NCATS), 2007).
About 35 (0.05%) of roughly 75,000 compounds were called active. Calls come from the whole dose curve; as a rule, active = well fitted inhibition curve with a large enough effect; inconclusive = small, poorly fitted or top-dose-only effect; inactive = no such curve, though single readings can be large or run the other way. The entries are a selection whose mix differs from that of the whole data set.

biological target: Breast cancer type 1 susceptibility protein (Homo sapiens) (UniProt P38398); test: qHTS Assay for Inhibitors of BRCT-Phosphoprotein Interaction (Green Fluorophore); details: BRCA1 BRCT-phosphopeptide binding, green fluorescence polarization; series mostly up to 76.9 µM; activity change, negative = inhibition: at the top concentration;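 for activity change, negative = inhibition: plate controls were peptide without protein for full effect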
How it was run: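 Compounds were incubated for 12 min at room temperature with a complex of 100 nM fluorescein-tagged pBACH1 decapeptide and 250 nM His-tagged BRCT protein. Buffer was phosphate pH 7.3 with EDTA, DTT and Tween 20. Disruption of binding lowers the polarization signal.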
Potency is the fitted concentration of half-maximal effect.

Chain of UniProt P38398 (P38398 whole entry, looked up): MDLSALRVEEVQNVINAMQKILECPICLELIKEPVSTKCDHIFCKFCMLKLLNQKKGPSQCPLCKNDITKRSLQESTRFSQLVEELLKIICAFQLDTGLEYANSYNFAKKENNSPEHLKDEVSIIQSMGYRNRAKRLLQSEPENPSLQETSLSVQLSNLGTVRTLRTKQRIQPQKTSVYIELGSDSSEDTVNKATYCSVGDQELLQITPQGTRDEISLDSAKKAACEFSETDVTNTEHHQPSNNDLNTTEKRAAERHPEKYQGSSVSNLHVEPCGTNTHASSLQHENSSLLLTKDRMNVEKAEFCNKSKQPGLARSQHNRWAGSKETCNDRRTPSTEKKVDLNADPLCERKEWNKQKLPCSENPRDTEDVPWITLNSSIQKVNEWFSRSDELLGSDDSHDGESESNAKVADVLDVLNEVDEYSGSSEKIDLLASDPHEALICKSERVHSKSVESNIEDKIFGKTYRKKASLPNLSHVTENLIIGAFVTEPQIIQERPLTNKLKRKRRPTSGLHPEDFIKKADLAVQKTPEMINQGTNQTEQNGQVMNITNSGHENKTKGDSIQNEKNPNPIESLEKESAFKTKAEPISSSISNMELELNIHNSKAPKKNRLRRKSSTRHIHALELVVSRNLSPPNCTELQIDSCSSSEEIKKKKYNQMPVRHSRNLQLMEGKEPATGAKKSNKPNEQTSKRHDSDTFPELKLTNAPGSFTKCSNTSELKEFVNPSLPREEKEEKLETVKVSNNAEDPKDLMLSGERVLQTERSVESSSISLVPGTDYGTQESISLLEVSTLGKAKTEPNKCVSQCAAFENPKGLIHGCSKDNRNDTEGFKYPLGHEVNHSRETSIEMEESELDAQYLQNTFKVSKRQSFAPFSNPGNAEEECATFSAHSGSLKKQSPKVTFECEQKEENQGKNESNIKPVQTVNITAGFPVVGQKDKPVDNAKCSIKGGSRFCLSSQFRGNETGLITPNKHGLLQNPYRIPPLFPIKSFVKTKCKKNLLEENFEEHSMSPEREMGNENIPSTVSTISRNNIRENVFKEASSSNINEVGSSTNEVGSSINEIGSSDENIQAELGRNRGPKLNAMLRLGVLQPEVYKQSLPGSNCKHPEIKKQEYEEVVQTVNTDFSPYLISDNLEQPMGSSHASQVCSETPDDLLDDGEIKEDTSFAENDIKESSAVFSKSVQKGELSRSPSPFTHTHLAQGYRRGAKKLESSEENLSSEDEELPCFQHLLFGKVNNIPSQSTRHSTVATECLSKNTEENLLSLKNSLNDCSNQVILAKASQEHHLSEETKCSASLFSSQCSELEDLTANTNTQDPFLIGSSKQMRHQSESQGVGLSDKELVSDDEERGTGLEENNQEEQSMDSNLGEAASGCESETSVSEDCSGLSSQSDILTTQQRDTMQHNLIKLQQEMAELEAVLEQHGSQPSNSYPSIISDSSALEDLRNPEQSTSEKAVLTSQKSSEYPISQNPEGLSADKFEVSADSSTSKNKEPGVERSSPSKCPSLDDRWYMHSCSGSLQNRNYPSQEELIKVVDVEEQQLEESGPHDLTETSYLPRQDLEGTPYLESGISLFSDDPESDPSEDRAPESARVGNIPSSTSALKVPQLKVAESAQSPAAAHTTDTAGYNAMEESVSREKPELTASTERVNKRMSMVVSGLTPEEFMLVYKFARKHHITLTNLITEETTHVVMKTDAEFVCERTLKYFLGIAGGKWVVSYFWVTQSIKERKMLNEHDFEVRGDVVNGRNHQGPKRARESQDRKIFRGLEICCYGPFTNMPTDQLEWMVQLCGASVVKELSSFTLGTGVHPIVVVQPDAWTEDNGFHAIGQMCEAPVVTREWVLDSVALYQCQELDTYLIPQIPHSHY

SMILES	activity change, negative = inhibition	Potency
CCCCc1ccc(C2C(C#N)=C(N)SC(N)=C2C#N)s1	inactive: 47.6%	
COc1ccc(-n2nnnc2SCC(=O)c2cc3ccccc3o2)cc1	inactive: 59%	
CCN(CC)c1ccc2cc(C(=O)Nc3ccc(-n4cnnn4)c(OC)c3)c(=O)oc2c1	inactive: 39.2%	
COCCn1c(=O)c(-c2cc(F)cc(F)c2)nc2cnc(Nc3cccc(OC)c3)nc21	inactive: 42.9%	
CC(=O)OCCNc1cc(N2CCN(C)CC2)c2noc3c2c1C(=O)c1ccccc1-3	inactive: 112%	
Cn1cc(C2=C(c3ccc(Cl)cc3Cl)C(=O)NC2=O)c2ccccc21	inactive: 66.6%	
Cc1cc(C(=O)Nc2sc(C)c(C)c2C#N)c(C)o1	inactive: 58.4%	
COc1ccc(Oc2ncc3nc(-c4cccs4)c(=O)n(CCC#N)c3n2)cc1	inactive: 56.3%	
CCOc1ccc2nc(NS(=O)(=O)c3ccc4c(c3)n(C)c(=O)n4C)sc2c1	inactive: 58.8%	
Cc1cc(-c2ccc(N=Nc3ccc4c(S(=O)(=O)O)cc(S(=O)(=O)O)c(N)c4c3O)c(C)c2)ccc1N=Nc1ccc2c(S(=O)(=O)O)cc(S(=O)(=O)O)c(N)c2c1O		active: 31.6 µM
COC(=O)Cn1cnc2c(nnn2-c2cccc(Cl)c2)c1=O	inactive: 49.3%	
COc1cccc(Nc2ncc3nc(CCc4ccccc4)c(=O)n(C4CC4)c3n2)c1	inactive: 42.1%	
COc1ccccc1-c1nc(C(N)=O)c2[nH]c(=O)n(-c3cccc(C)c3)c2n1	inactive: 32.3%	
N#CCCn1c(=O)c(CCc2ccccc2)nc2cnc(Nc3ccccc3)nc21	inactive: 30.6%	
Cc1ccc(C2C3CSCC=C3C(C#N)=C(N)C2(C#N)C#N)cc1 (centres undefined)	inactive: 35%	
C/C(=N\NC(=O)c1ccncc1)c1ccc2ccccc2c1O	inactive: 146% [at 15.4 µM]	
Fc1ccc(Br)cc1C1C=C(c2ccc(Br)s2)Nc2ncnn21 (centres undefined)	inactive: 30.9%	
CCNc1ncc2nc(CCc3ccccc3)c(=O)n(Cc3ccc(F)cc3)c2n1	inactive: 44.2%	
Cc1coc(NC(=O)CSc2nc(-c3ccncc3)cc(C(F)(F)F)c2C#N)n1	inactive: 4.93%	
O=C(O)c1ccccc1-c1ccc(/C=c2\sc3nc4cc(Br)cnc4n3c2=O)o1	inactive: 45%	
CCOC(=O)c1sc(N)c(C#N)c1COC(=O)CNC(=O)c1ccccc1	inactive: 54%	
N#C/C(=C\NC(=S)c1ccncc1)c1nc2ccccc2s1	inactive: 44.9% [at 15.4 µM]	
CCNc1ncc2nc(-c3cc(F)cc(F)c3)c(=O)n(-c3ccccc3)c2n1	inactive: 73%	
COc1ccc(-n2c(=O)c(-c3cccs3)nc3cnc(Nc4ccccc4)nc32)cc1	inactive: 80.5%	
COc1ccc(-c2nc3cnc(N(C)C)nc3n(-c3ccccc3)c2=O)cc1	inactive: 47.3%	
N#CC1=C(N)Oc2c(sc3ccccc23)C1c1ccco1 (centres undefined)	inactive: 32.7%	
COc1cccc(Oc2ccc(N)cn2)c1	inactive: 58.5%	

SMILES	activity change, negative = inhibition	Potency
Cc1csc(SCC(=O)c2ccc(S(=O)(=O)N3CCOCC3)cc2)n1	inactive: 38.5%	
COc1ccc(-c2cc(C(F)(F)F)nc(SCC(=O)N3CCOCC3)n2)cc1OC	inactive: 0.461%	
CC(=O)c1c(O)c(C)c(O)c2c1OC1=CC(=O)C(C(C)=O)C(=O)[C@@]12C (some centres undefined)	inactive: 87.6%	
c1coc(-c2nc(-c3ccco3)c(-c3ccco3)nc2-c2ccco2)c1		active: 12.6 µM
N#CC1=C(SCC(=O)c2cc3ccccc3oc2=O)NC(=O)C(C#N)C12CCCC2 (centres undefined)	inactive: 91.2%	
CN(c1ccccc1)c1ccc(/C=c2\s/c(=C(/C#N)C(=O)C(C)(C)C)n(Cc3ccco3)c2=O)cc1	inactive: 94%	
N=c1c2c(-c3ccccc3)c(-c3ccccc3)n(Cc3ccco3)c2ncn1Cc1ccco1	inactive: 60.5%	
O=C(O)/C=C\c1c2ccc(=O)c(O)c-2oc2c(O)c(O)ccc12		active: 6.31 µM
COC(=O)c1ccc(CSc2nc3c(c(=O)n2-c2ccccc2)SCC3)o1	inactive: 47.9%	
O=c1cnc2cnc(N3CCOCC3)nc2n1Cc1ccc(F)cc1	inactive: 42%	
COc1ccc(-c2nc3cnc(N4CCN(C)CC4)nc3n(Cc3cccs3)c2=O)cc1	inactive: 37.5%	
COCCn1c(=O)c(-c2ccc(OC)cc2)nc2cnc(Nc3cccc(OC)c3)nc21	inactive: 31.6%	
CCOC(=O)CCSc1nc(C)cc(C(F)(F)F)c1C#N	inactive: 43.3%	
CN(Cc1ccco1)c1ncnc2ccc(-c3ccccc3Cl)cc12	inactive: 36.5%	
CC1CCN(c2nc3ccccc3nc2C(C#N)S(=O)(=O)c2ccccc2)CC1 (centres undefined)	inactive: 47.6%	
CCOC(=O)C1=C(C)N=c2s/c(=C\c3cccn3C)c(=O)n2C1c1cccc(OC)c1OC (centres undefined)	inactive: 33.1%	
CCN(CC)c1ccc2oc(=O)c(C)nc2c1	inactive: 64.4%	
N=C(N)c1ccc(OCCCCCOc2ccc(C(=N)N)cc2)cc1		inactive
Cc1ccc(C2C(C#N)=C(N)SC(N)=C2C#N)c(C)c1	inactive: 57.7%	
CC(=O)C1=C(O)C=C2Oc3c(C(C)=O)c(O)c(C)c(O)c3[C@]2(C)C1=O	inactive: 30.4%	
N#Cc1c(C(F)(F)F)cc(-c2ccccc2)nc1SCc1nc(N)nc(N2CCOCC2)n1	inactive: 50%	
C=CCn1c(=O)/c(=C/c2cc(OC)c(OC)c(OC)c2)s/c1=C(/C#N)c1nc2ccccc2n1C	inactive: 40.5%	
O=C(Nc1ccc(-c2nc3ccccc3o2)c(O)c1)c1cc(-n2cnnc2)ccc1Cl	inactive: 36.8%	
CN(C)c1ccc(/C=C/C(O)=C2/C(=O)N(C)C3(C)CC2c2ccccc2O3)cc1 (centres undefined)	inactive: 36.5%	
CCOC(=O)c1ccc(NCn2c(=O)oc3ccccc32)cc1	inactive: 40.1%	
COc1ccc(/C=C/C(=O)c2cccs2)c(OC)c1	inactive: 37%	
N#CC1=C(N)SC(N)=C(C#N)C1CCC1CCCCC1	inactive: 90.3%	
